Experimental data taken from article PMC4336329 (PLoS ONE, 2015).
About 2,200 (0.71%) of roughly 310,000 compounds showed an effect of 50% or more. Effects have a minus sign here. The list shows a part of the results. Where a SMILES comes first, the peptide text is derived from it. The star is where a group is joined. Cbz = O=C(OCc1ccccc1)*

These molecules were tested against human ether-à-go-go-related gene (hERG) potassium channel (human, UniProt Q12809) (assay: primary screen, population patch clamp on CHO cells stably expressing hERG).
human ether-à-go-go-related gene (hERG) potassium channel, sequence (Q12809 whole entry, looked up): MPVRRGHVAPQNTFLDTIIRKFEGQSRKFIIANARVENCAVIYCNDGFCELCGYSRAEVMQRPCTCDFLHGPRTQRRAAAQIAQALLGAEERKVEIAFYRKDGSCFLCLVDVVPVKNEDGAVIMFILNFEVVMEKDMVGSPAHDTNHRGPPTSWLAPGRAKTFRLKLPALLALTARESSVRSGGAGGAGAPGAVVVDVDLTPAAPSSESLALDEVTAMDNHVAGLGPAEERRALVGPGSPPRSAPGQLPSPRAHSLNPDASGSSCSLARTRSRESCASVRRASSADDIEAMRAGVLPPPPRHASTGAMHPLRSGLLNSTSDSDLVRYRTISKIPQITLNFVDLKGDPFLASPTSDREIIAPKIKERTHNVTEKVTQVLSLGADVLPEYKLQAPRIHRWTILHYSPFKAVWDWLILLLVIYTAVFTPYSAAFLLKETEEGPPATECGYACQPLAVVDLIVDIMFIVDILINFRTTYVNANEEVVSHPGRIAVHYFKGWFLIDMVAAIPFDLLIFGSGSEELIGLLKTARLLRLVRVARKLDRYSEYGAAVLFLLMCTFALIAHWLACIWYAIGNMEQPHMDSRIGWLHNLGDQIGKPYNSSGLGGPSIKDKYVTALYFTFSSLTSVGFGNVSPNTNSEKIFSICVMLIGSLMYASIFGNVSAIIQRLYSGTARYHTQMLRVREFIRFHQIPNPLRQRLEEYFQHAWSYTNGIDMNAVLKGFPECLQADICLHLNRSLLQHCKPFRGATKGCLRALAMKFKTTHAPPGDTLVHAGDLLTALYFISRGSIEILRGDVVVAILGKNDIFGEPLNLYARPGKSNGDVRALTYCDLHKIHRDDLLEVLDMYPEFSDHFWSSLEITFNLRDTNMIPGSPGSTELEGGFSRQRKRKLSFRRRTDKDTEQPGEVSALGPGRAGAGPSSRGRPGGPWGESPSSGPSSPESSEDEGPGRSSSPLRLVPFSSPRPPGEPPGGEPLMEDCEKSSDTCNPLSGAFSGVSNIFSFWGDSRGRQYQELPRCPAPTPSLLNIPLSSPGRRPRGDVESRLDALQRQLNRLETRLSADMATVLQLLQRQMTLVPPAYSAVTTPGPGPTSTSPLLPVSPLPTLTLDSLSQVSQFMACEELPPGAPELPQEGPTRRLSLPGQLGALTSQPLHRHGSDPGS

Row | Compound | hERG current change (%, negative = inhibition) at 1uM [%]
1 | COc1ccc(C(=O)OCC(=O)NC2CC2)cc1S(=O)(=O)Nc1ccc(C)cc1 | 8.55
2 | COc1ccc(CC(=O)NCC2CCCN(Cc3ccccc3OC)C2)cc1 (centres unmarked) | 16.5
3 | COc1ccc([C@H](C)NC[C@H](O)c2ccc(O)c(NC=O)c2)cc1.O=C(O)/C=C/C(=O)O | 7.73
4 | Cc1onc(-c2c(F)cccc2Cl)c1C(=O)N=C(N)N1CC(C)OC(C)C1 (centres unmarked) | 4.11
5 | CC(C)(C)OC(=O)NCC1CCC(C(=O)NC[C@H](CC(=O)O)c2ccc(Cl)cc2)CC1 (some centres unmarked) | 15.6
6 | Cc1ccc(NC(=O)c2cc(N3C(=O)CCC3=O)ccc2N2CCCCC2)cc1 | 13.6
7 | Cc1c(C=O)c2ccccc2n1Cc1ccc([N+](=O)[O-])cc1 | -24.7
8 | Cn1c(N)c(C(=O)COC(=O)C2(c3cccc(F)c3)CCCC2)c(=O)n(C)c1=O | 4.85
9 | Brc1ccc(Nc2nc(-c3cccnc3)cs2)cc1 | 3.42
10 | CSc1ccc(N2CCN(CCCNC(=O)Nc3ccccc3F)CC2)cc1 | -5
11 | CN(C)S(=O)(=O)c1ccc(NC(=O)N2CCN(c3ccccc3)CC2)cc1 | 9.53
12 | C=CCOc1ccccc1/C=N/n1nnnc1N | 3.5
13 | Cn1nc(C(F)(F)F)c(CN2CC(C)(C)C2=O)c1N1CCOCC1 | 14.3
14 | CCOc1ccc(CNc2ccc(N3CCOCC3)c(C(=O)O)c2)cc1 | 12.3
15 | O=C(NCc1cccs1)C(=O)NCC1OCCCN1S(=O)(=O)c1cccs1 (centres unmarked) | 1.05
16 | Cl.O=c1cn[nH]c2ccccc12 | -2.68
17 | COc1cc2oc(=O)ccc2cc1[C@H](O)[C@@H](O)C(C)(C)O | 13.2
18 | CCOC(=O)c1cnn(-c2ccc(Cl)cc2)c1C1CCN(C(=O)OC(C)(C)C)CC1 | 9.66
19 | CC(COC(=O)c1ccccc1)(COC(=O)c1ccccc1)/[N+]([O-])=C/c1ccccc1 | 9.2
20 | CC(C)C(=O)c1cn(CC(=O)NCc2ccc3c(c2)OCO3)c2ccccc12 | 16.7
21 | CCc1ccccc1NC(=O)CNC1CCCCC1.[O-][Cl+3]([O-])([O-])O | 11.6
22 | Nc1ccc(C(=O)N2CCN(S(=O)(=O)c3ccc(Cl)cc3)CC2)cc1[N+](=O)[O-] | -4.43

Row | Compound | hERG current change (%, negative = inhibition) at 1uM [%]
23 | O=C(C1CCCCC1)N1CCN(S(=O)(=O)c2cccc([N+](=O)[O-])c2)CC1 | 3.63
24 | CC(C)c1nc2sc3c(NCc4ccco4)ncnc3c2c2c1COC(C)(C)C2 | -7.83
25 | O=C1C2CCCN2C(=O)N1CCCCN1CCN(c2ccc(F)cc2)CC1 (centres unmarked) | -10
26 | CCCc1nnc(SCC(=O)Nc2cc(C)on2)n1CCOC | 13.2
27 | Fc1ccc(NC(=S)N2CCc3ccccc32)cc1 | 12.4
28 | Clc1ccccc1-c1nc(-c2cccnc2)no1 | 12.4
29 | O=C1c2ccccc2C(=O)N1CCCn1nnc(-c2ccc(N3CCOCC3)cc2)n1 | 8.3
30 | COc1ccc2[nH]c3c(=O)n(Cc4ccc(C(=O)N5CCCCCC5)cc4)c(=S)[nH]c3c2c1 | 5.1
31 | O=C1C2=C(c3ccccc31)[N+](=O)C1CCCCC1N2[O-] (centres unmarked) | -7.07
32 | O=C(CN1C(=O)NC(Cc2c[nH]c3ccccc23)C1=O)Nc1cccc(S(=O)(=O)N2CCOCC2)c1 (centres unmarked) | 12.1
33 | COc1ccc(N(CC(=O)NC2CCCC2)C(=O)Cn2nnc(-c3ccc(C)cc3)n2)cc1OC | 10.1
34 | CCCN1CCN(CCCNC(=O)Cn2nc(-c3ccccc3)ccc2=O)CC1 | -3.23
35 | Cc1ccc(CNC(=O)CCC(=O)c2cccs2)cc1 | 0.701
36 | CCOC(=O)C1C(c2ccc(O)c(OCC)c2)NC(=S)NC1(O)C(F)(F)F (centres unmarked) | -6.98
37 | O=c1c2c(nc3cc(-c4cccc(Cl)c4)[nH]n13)CCC2 | 6.34
38 | Fc1ccccc1NC(=S)NCc1ccc(Cl)cc1 | 23.1
39 | Cc1nn(-c2ccccc2)nc1C(=O)NNC(=O)c1cccc2ccccc12 | 4.74
40 | O=C(N/N=C/c1ccc(O)c(Br)c1)c1cc2c(ccc3ccccc32)o1 | 10.9
41 | COc1ccc2[nH]cc(S(=O)(=O)c3ccc(C)cc3)c2c1 | 4.68
42 | CCOc1ccc(S(=O)(=O)N2CCN(C(=O)c3cc(-c4ccccc4)nn3-c3ccccc3)CC2)cc1 | 1.24
43 | CCn1c(SCc2cccc(F)c2)nnc1-c1cccnc1 | 0.0692
44 | O=C1C=C(c2ccc(O)cc2)C[C@@H](c2ccc(Cl)cc2)C1 | 20.6

Row | Compound | hERG current change (%, negative = inhibition) at 1uM [%]
45 | COc1cn(-c2ccccc2)nc1C(=O)Nc1ccccc1 | 10
46 | CC1=C(C#N)C2C(/C1=N/O)C2(C)C (centres unmarked) | 17.1
47 | COc1ccc(NC(=O)c2ccccc2S(=O)c2ccccc2C#N)cc1 (centres unmarked) | 7.33
48 | C=CCn1c(SCC(=O)Nc2ccc(F)cc2)nc2cc(C(=O)O)ccc2c1=O | 8.51
49 | CC1=NN(C(N)=S)C(=O)C1N=Nc1cc(Cl)ccc1Cl (centres unmarked) | 13.6
50 | COc1cc(SC)ccc1C(=O)N1CCN(S(=O)(=O)/C=C/c2ccccc2)CC1 | -17.7
51 | CN(C1(C)CCS(=O)(=O)C1)S(=O)(=O)c1ccc2ccccc2c1 (centres unmarked) | 7.8
52 | COc1ccc(C(=O)N2CCCC(C(=O)N3CCCCCC3)C2)cc1 (centres unmarked) | 4.17
53 | Cn1cnc2cc(NCc3cccs3)ccc21 | 2.33
54 | C/C(=N\NC(=O)c1ccc(Br)o1)c1cc2c(cc1NC(=O)CCC(=O)O)OCO2 | 14.3
55 | Cc1noc(C)c1COc1cccc(C(=O)OC(C)C(=O)Nc2c(C)n(C)n(-c3ccccc3)c2=O)c1 (centres unmarked) | 10
56 | O=C(Nc1nc(-c2ccccc2)nc2ccccc12)c1ccc(F)cc1 | 16.9
57 | Cc1ccccc1OCCNC(=O)CNC(=O)c1ccccc1O | -30.6
58 | O=C(O)c1ccc(-c2ccc(O)c(F)c2)cc1 | 10.9
59 | CCn1c(-c2cc(-c3ccc(OC(C)C)cc3)nc3ccccc23)n[nH]c1=S | -2.73
60 | Cc1nn(C)c(Cl)c1C(=O)NCC(=O)NCc1ccccc1 | 11.1
61 | O=C(O)CCC(NC(=O)C1CCCN1C(=O)OCc1ccccc1)C(=O)O (stereo not drawn) (Cbz-Pro-Glu-OH; configuration not given here) | 11.1
62 | Cc1ccc(-n2nnnc2SCC(=O)NNC(=O)c2ccco2)cc1C | 19.7
63 | N#CCC(=O)Nc1ccc(C(=O)OC(C(=O)Nc2cc(C(F)(F)F)ccc2Cl)c2ccccc2)cc1 (centres unmarked) | 4.71
64 | CCS(=O)(=O)Nc1cc(OC)c(OC)cc1Cc1nccc2cc(OC)c(OC)cc12 | -4.86
65 | Cc1nc2ccc([N+](=O)[O-])cc2c(=O)n1Cc1cccc(Br)c1 | 6.43
66 | CCOC(=O)C1(CC2CC2)CCN(C(=O)c2ocnc2C)CC1 | 18.4

Row | Compound | hERG current change (%, negative = inhibition) at 1uM [%]
67 | COc1cc(S(=O)(=O)Nc2c(C)nn(C)c2C)ccc1NC(C)=O | 12.4
68 | O=C1CCCC2=C1C(c1ccsc1)CC(=O)N2c1ccccc1 (centres unmarked) | 4.09
69 | CC(=O)Nc1cccc2c1C(=O)N(c1ccccc1C)C2=O | 15
70 | O=C(Nc1ccc2[nH]ncc2c1)c1ccccc1Cl | 22
71 | CCCC(=O)Nc1cc2c(cc1C(=O)c1ccccc1)OCCO2 | -1.17
72 | Cc1nc2c(ccc3nc(NC(=O)Cc4cccc5ccccc45)sc32)s1 | 19.4
73 | Cc1ccc(-c2nc3ccc(Cl)cc3n2OC(=O)N(C)C)cc1 | 12.7
74 | O=C(CNCc1ccccn1)Nc1cc(C(F)(F)F)ccc1N1CCOCC1.O=C(O)C(=O)O | -13.3
75 | COc1ccc(C(=O)COc2ccc(F)cc2)c(O)c1 | -9.28
76 | Cc1ccc2nc(N3C(=O)C(O)=C(C(=O)c4ccc(C)o4)C3c3cccc(O)c3)sc2c1 (centres unmarked) | 16.8
77 | CC(=O)Nc1ccc2nc(NC(=O)c3ccco3)sc2c1 | 8.75
78 | Cc1cccc(NC(=O)CSc2nnc(C)n2Cc2ccccc2)c1 | -6.2
79 | CC(C)OCCCn1c(=NC(=O)c2cccs2)c(C#N)cc2c(=O)n3ccccc3nc21 | -67.1
80 | CCOC(=O)c1cnc2nc(SC)nn2c1N | 10.7
81 | Cc1ccc(NS(=O)(=O)c2ccc3c(c2)oc(=O)n3C)cc1 | 15.2
82 | Cc1ccccc1N(C(=O)c1csnn1)C(C(=O)NC(C)(C)C)c1cccs1 (centres unmarked) | 6.07
83 | COc1ccc(CN(C)C(=O)c2oc3ccccc3c2CSC)cc1F | 18.3
84 | O=[N+]([O-])c1ccc(Nc2ccc(F)cc2)nc1 | -11.3
85 | O=C(COCc1cc(-c2ccc3c(c2)OCO3)on1)N1CCN(c2cccc(C(F)(F)F)c2)CC1 | 18.5
86 | O=c1[nH]ncc(N2CCN(Cc3ccccc3)CC2)c1Cl | 8.85
